Data as given in patent publication US10299477B2 (priority 2015, dated 2019).

Key:
Type in all cases: in vivo
Puccinia recondita = experiment: Test Example E: Brown rust on wheat; settings: 250 ppm spray, preventive; control value class
Excerpt: [Test Example E] Brown Rust on Wheat

Plasmopara viticola = experiment: Test Example G: Downy mildew on vine; settings: 250 ppm spray (2.5 ml/pot), preventive; 7-10 days after inoculation; control value class
Excerpt: [Test Example G] Downy Mildew on Vine
Seeds of a test plant (grape variety: Neomuscat) were planted followed by cultivating until three to four first leaves appeared. […] After the sprayed dilutions were dried, a zoosporangia suspension (1-2×10^4 zoosporangia/ml) of Plasmopara viticola was inoculated to the plants by spraying.

[1] = test system: Blumeria graminis f sp. hordei; experiment: Test Example D: Powdery mildew on barley; settings: 250 ppm spray, preventive; control value class
Excerpt: [Test Example D] Powdery Mildew on Barley
After the sprayed dilutions were dried, conidia of Blumeria graminis f sp. hordei were inoculated to the plants by shaking off.

Alternaia brassicicola = experiment: Test Example C: Alternaria sooty spot on cabbage; settings: 250 ppm spray, preventive; control value class
Excerpt: [Test Example C] Alternaria Sooty Spot on Cabbage
Seeds of a test plant (cabbage variety: Shikidori) were planted followed by cultivating until the cotyledons extended.

Botrytis cinerea = experiment: Test Example B: Gray mold on tomato; settings: 250 ppm spray, preventive; control value class
Excerpt: [Test Example B] Gray Mold on Tomato
Seeds of a test plant (tomato variety: Oogata Fukuju) were planted followed by cultivating until three to five first leaves (true leaves) appeared.

| SMILES | Test E control value (brown rust on wheat) (Puccinia recondita) | Test G control value (downy mildew on vine) (Plasmopara viticola) | Test D control value (powdery mildew on barley) [1] | Test C control value (Alternaria sooty spot on cabbage) (Alternaia brassicicola) | Test B control value (gray mold on tomato) (Botrytis cinerea) |
| --- | --- | --- | --- | --- | --- |
| CCn1c(-c2c(F)cncc2F)c(-c2cc(OC)cc(OC)c2)ccc1=O [Compound 215] | H (H shows more than 50% of control values) | H (H shows more than 50% of control values) | H (H shows more than 50% of control values) | H (H shows more than 50% of control values) | H (H shows more than 50% of control values) |
| CCn1c(-c2c(F)cncc2F)c(-c2cc(OC)cc(OC)c2Br)ccc1=O [Compound 216] | H (H shows more than 50% of control values) | H (H shows more than 50% of control values) | H (H shows more than 50% of control values) | H (H shows more than 50% of control values) | H (H shows more than 50% of control values) |
| CCn1c(-c2c(F)cccc2F)c(-c2cccc(OC(F)(F)F)c2)ccc1=O [Compound 217] | H (H shows more than 50% of control values) | H (H shows more than 50% of control values) | H (H shows more than 50% of control values) | H (H shows more than 50% of control values) | L (L shows 50% or less of control values) |
| CCn1c(-c2c(F)cccc2F)c(-c2cccc(OC(F)(F)F)c2)cc(Cl)c1=O [Compound 218] | H (H shows more than 50% of control values) | L (L shows 50% or less of control values) | H (H shows more than 50% of control values) | H (H shows more than 50% of control values) | L (L shows 50% or less of control values) |
| CCn1c(-c2c(F)cccc2F)c(-c2cccc(C)c2)ccc1=O [Compound 219] | H (H shows more than 50% of control values) | L (L shows 50% or less of control values) | H (H shows more than 50% of control values) | H (H shows more than 50% of control values) | H (H shows more than 50% of control values) |
| CCn1c(-c2c(F)cccc2F)c(-c2cccc(C)c2)cc(Cl)c1=O [Compound 220] | L (L shows 50% or less of control values) | L (L shows 50% or less of control values) | L (L shows 50% or less of control values) | L (L shows 50% or less of control values) | L (L shows 50% or less of control values) |
| CCn1c(-c2c(F)cccc2F)c(-c2cc(OCC3CC3)ccc2Cl)cc(Cl)c1=O [Compound 221] | H (H shows more than 50% of control values) | L (L shows 50% or less of control values) | H (H shows more than 50% of control values) | H (H shows more than 50% of control values) | H (H shows more than 50% of control values) |
| COCOc1ccc(Cl)c(-c2cc(Cl)c(=O)n(CC(F)F)c2-c2c(F)cccc2F)c1 [Compound 222] | H (H shows more than 50% of control values) | H (H shows more than 50% of control values) | H (H shows more than 50% of control values) | H (H shows more than 50% of control values) | H (H shows more than 50% of control values) |
| CCOc1ccc(Cl)c(-c2cc(Cl)c(=O)n(CC(F)F)c2-c2c(F)cccc2F)c1 [Compound 223] | H (H shows more than 50% of control values) | H (H shows more than 50% of control values) | H (H shows more than 50% of control values) | H (H shows more than 50% of control values) | H (H shows more than 50% of control values) |
| CCn1c(-c2c(F)cncc2F)c(-c2cc(OC)cc(OC)c2Cl)ccc1=O [Compound 224] | H (H shows more than 50% of control values) | H (H shows more than 50% of control values) | H (H shows more than 50% of control values) | H (H shows more than 50% of control values) | H (H shows more than 50% of control values) |
| CCN1C(=O)CCC(c2cc(OC)cc(OC)c2)=C1c1ccccc1F [Compound 225] | H (H shows more than 50% of control values) | H (H shows more than 50% of control values) | L (L shows 50% or less of control values) | H (H shows more than 50% of control values) | H (H shows more than 50% of control values) |
| COc1cc(OC)cc(C2=C(c3ccccc3F)N(C)C(=O)CC2)c1 [Compound 226] | H (H shows more than 50% of control values) | H (H shows more than 50% of control values) | L (L shows 50% or less of control values) | H (H shows more than 50% of control values) | H (H shows more than 50% of control values) |
| CCn1c(-c2ccccc2F)c(-c2cc(OC)cc(OC)c2Br)ccc1=O [Compound 231] | H (H shows more than 50% of control values) | H (H shows more than 50% of control values) | H (H shows more than 50% of control values) | H (H shows more than 50% of control values) | H (H shows more than 50% of control values) |
| CCn1c(-c2ccccc2F)c(-c2cc(OC)cc(OC)c2Cl)ccc1=O [Compound 232] | H (H shows more than 50% of control values) | L (L shows 50% or less of control values) | H (H shows more than 50% of control values) | H (H shows more than 50% of control values) | H (H shows more than 50% of control values) |
| COc1cc(OC)c(Cl)c(-c2ccc(=O)n(C)c2-c2ccccc2F)c1Cl [Compound 233] | H (H shows more than 50% of control values) | H (H shows more than 50% of control values) | H (H shows more than 50% of control values) | L (L shows 50% or less of control values) | H (H shows more than 50% of control values) |
| CCn1c(-c2c(F)cccc2F)c(-c2cc(O)ccc2Cl)ccc1=O [Compound 234, 5-(2-chloro-5-hydroxyphenyl)-6-(2,6-difluorophenyl)-1-ethylpyridine-2(1H)-one] | H (H shows more than 50% of control values) | H (H shows more than 50% of control values) | L (L shows 50% or less of control values) | H (H shows more than 50% of control values) | H (H shows more than 50% of control values) |
| Cn1c(-c2c(F)cccc2F)c(-c2cc(OCC#N)ccc2Cl)ccc1=O [Compound 236] | H (H shows more than 50% of control values) | H (H shows more than 50% of control values) | H (H shows more than 50% of control values) | H (H shows more than 50% of control values) | H (H shows more than 50% of control values) |
| CCOc1ccc(Cl)c(-c2ccc(=O)n(C)c2-c2c(F)cccc2F)c1 [Compound 237] | H (H shows more than 50% of control values) | L (L shows 50% or less of control values) | H (H shows more than 50% of control values) | L (L shows 50% or less of control values) | H (H shows more than 50% of control values) |
| Cn1c(-c2c(F)cccc2F)c(-c2cc(OCC3CC3)ccc2Cl)ccc1=O [Compound 238] | H (H shows more than 50% of control values) | H (H shows more than 50% of control values) | H (H shows more than 50% of control values) | H (H shows more than 50% of control values) | H (H shows more than 50% of control values) |
